Experimental data from PubChem BioAssay AID686979 (National Center for Advancing Translational Sciences (NCATS), 2013).
Out of some 420,000 compounds screened, about 50,000 (12%) were called active. The shares of active, inactive and inconclusive entries below differ from those in the screen. Calls follow the shape of the dose curve; as a rule, active = well fitted inhibition curve with a large enough effect; inconclusive = small, poorly fitted or top-dose-only effect; inactive = flat fitted curve, though single readings scatter. No potency is given beside an inconclusive call; the fits are too rough.

Assay: qHTS for Inhibitors of human tyrosyl-DNA phosphodiesterase 1 (TDP1): qHTS in cells in presence of CPT; also: nearly all actives have a fitted effect of over 55% in size
Conditions: chicken DT40 Tdp1-/-;hTDP1 cells + 20 nM CPT, ATP luminescence, 48 h; activity change, negative = growth inhibition: at 46.2 µM (top of the series)
How it was run: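 Cell growth measured by CellTiter-Glo luminescence after a minimum 48 h, 37 C compound exposure with 20 nM CPT in Tdp1-knockout DT40 cells stably expressing hTDP1, seeded 400/well; qHTS titration format.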
% is scaled to controls: 0 for no effect and ±100 for the full control effect; potency is read from the fitted curve at half-maximal effect; tags tell the direction and shape of the fitted curve.

Compound	Potency	activity change, negative = growth inhibition
Cc1cc(C)c2nc(-c3ccccn3)cc(C(=O)n3cccn3)c2c1	inconclusive [inhibitor, partial curve]	–
O=C(COC(=O)CNC(=O)c1cccc([N+](=O)[O-])c1)Nc1cccc(S(=O)(=O)N2CCCCC2)c1	inconclusive [inhibitor, partial curve]	–
O=S1(=O)N=C(N2CCN(c3ccc(F)cc3)CC2)c2ccccc21	inconclusive [inhibitor, full curve, poor fit]	–
COc1ccccc1-c1oc2ccccc2c1C#CCCCCO	inconclusive [inhibitor, single point]	–
O=C(COC(=O)C1CCN(S(=O)(=O)c2ccc3c(c2)OCCO3)CC1)Nc1cc(C(F)(F)F)ccc1Cl	inactive	–
C=CCn1c(COc2ccccc2)nnc1SCC(=O)N/N=C/c1cc(Cl)ccc1O	inconclusive [inhibitor, single point]	–
Cc1ccc(-n2nnnc2CSc2nnc(-c3ccc(O)cc3)o2)cc1	inactive	–
CC(C)CCNC(=S)Nc1ccc(Br)cc1	inconclusive [inhibitor, single point]	–
O=C1CS/C(=N/N=C2C3CC4CC(C3)CC2C4)N1	inconclusive [inhibitor, single point]	–
CCCCNc1c(-c2cccc(-c3cc(C(C)=O)cs3)c2)nc2cc(C)ccn12	inconclusive [inhibitor, partial curve, poor fit]	–
O=C(Nc1cccc2c1CCCC2)C1CCN(c2nnnn2-c2ccccc2)CC1	inconclusive [inhibitor, single point]	–
Cc1ccc(-c2cnc(C3CC3)o2)cc1S(=O)(=O)Nc1ccc(F)cc1Cl	inconclusive [inhibitor, single point]	–
CC1CCN(c2ccc3nnc(CCC(=O)N4CCN(c5ccc(F)cc5)CC4)n3n2)CC1	inconclusive [inhibitor, single point]	–
Cc1cc(C)c(C(=O)CSc2nc3ccccc3c(=O)[nH]2)cc1C	inactive	–
COc1ccc(NC(=O)c2[nH]c(C)c(C(C)=O)c2C)cc1Cl	active: 2.06 µM	–
Cc1[nH]c(=O)[nH]c(=O)c1/C=N/NC(=O)CCCCCNC(=O)OC(C)(C)C	inactive	–
C[C@H]1COC(=O)CCCC/C=C\C[C@H](CC(=O)N(CCO)Cc2ccccc2)C(=O)N1	inconclusive [inhibitor, partial curve]	–
COc1ccc(C(C)(O)c2nc(-c3cccc(C(F)(F)F)c3)cs2)cc1 (stereo not drawn)	active: 25.9 µM	–
Nn1cc(Br)c(=O)[nH]c1=O	inactive	–
CC(C)CNC(=O)C(=O)Nc1c2c(nn1-c1ccc(Cl)cc1)CSC2	inconclusive [inhibitor, partial curve]	–
CN1CCc2c(sc3c2C(=O)NC(/C=C\c2ccccc2)N3)C1 (stereo not drawn)	inconclusive [inhibitor, single point]	–
S=C(NCCc1ccccc1)N1CCN(C(=S)NCCc2ccccc2)CC1	inactive	–
C/C(CS(=O)(=O)c1ccc(Cl)c(Cl)c1)=N/NC(N)=S	active: 18.4 µM	–

Compound	Potency	activity change, negative = growth inhibition
CCOC(=O)CNC(=O)CSc1nc(Cc2ccccc2)nc2ccccc12	inconclusive [inhibitor, partial curve, poor fit]	–
Cc1cccc(N(C)S(=O)(=O)c2ccc3[nH]cc(C(=O)N4CCOCC4)c(=O)c3c2)c1	inactive	–
Cc1ccc(-n2c(Cc3ccccc3)n[nH]c2=S)c(C)c1	inactive	–
CCOC(=O)c1cnc2ccc(Cl)cc2c1N1CCN(C)CC1	inconclusive [inhibitor, partial curve]	–
O=C(O)c1ccc(N2C(=O)/C(=C/c3ccc(-c4ccc([N+](=O)[O-])cc4)o3)C=C2c2ccccc2)cc1	inconclusive [inhibitor, single point]	–
COc1ccc(C(=O)NCCNc2nc3cc(C)cc(C)c3cc2C#N)c(OC)c1	inconclusive [inhibitor, single point]	–
COc1ccc(C2(C)NC(=O)N(CC(=O)Nc3ccc(S(=O)(=O)N4CCCC4)cc3)C2=O)cc1 (stereo not drawn)	inactive	–
CCCN(CCC)CCCNC(=O)c1ccc2c(Cl)c3c(nc2c1)CCC3	inconclusive [inhibitor, single point]	–
C[C@H]1CN([C@@H](C)CO)C(=O)c2cccc(NS(=O)(=O)c3ccc(F)cc3)c2O[C@H]1CN(C)S(=O)(=O)c1cn(C)cn1	inactive	–
CC(=O)c1ccc(NC(=O)CSc2nccn2C2CCCC2)cc1	inconclusive [inhibitor, single point]	–
O=C(CCl)N1c2ccccc2SCC1c1ccccc1 (stereo not drawn)	active: 2.59 µM	–
O=C(NNC(=O)c1cccc(S(=O)(=O)N2CCN(c3ccccc3)CC2)c1)c1ccc(Cl)cc1	inconclusive [inhibitor, single point]	–
CCCn1c(=O)c2sccc2n2c(CCCC(=O)N3CCN(c4ccc(OC)cc4)CC3)nnc12	inconclusive [inhibitor, partial curve]	–
CN(C)C(=O)c1ccc(-c2nnc(NCc3ccccc3)c3ccccc23)cc1	inconclusive [inhibitor, partial curve, poor fit]	–
CCc1noc(C)c1C(=O)OCC(=O)N(C)c1c(N)n(Cc2ccccc2)c(=O)[nH]c1=O	inactive	–
CC(C)CC(=O)Nc1cccc(-c2cn3cccnc3n2)c1	inactive	–
C/C(=C/C(=O)N1CCN(C)CC1)C(=O)O	inactive	–
CCN(CC)C(=O)C(=O)c1cn(CC(=O)NCc2ccc3c(c2)OCO3)c2ccccc12	–	inconclusive: -31.7% [inhibitor]
Oc1c(Br)cc(/C=N/Nc2nncc3ccccc23)cc1Br	inconclusive [inhibitor, single point]	–
O=c1c(N2CCN(c3ccc(F)cc3)CC2)csc2ccc(F)cc12	active: 18.4 µM	–
CCOc1ccc(NC(=O)CSc2nc3ccccc3nc2N2CCOCC2)cc1	active: 20.6 µM	–
Cc1ccc(-c2cc(C(=O)NCCCN3CCOCC3)c3ccc(Cl)c(C)c3n2)cc1	inconclusive [inhibitor, single point]	–
Cc1nn(-c2cccc(Cl)c2)c2nc(-c3cccnc3)cc(C(F)(F)F)c12	inactive	–

Compound	Potency	activity change, negative = growth inhibition
Cc1nc2ccccc2n1CCc1nc2c3ccccc3nc(=S)n2[nH]1	inactive	–
O=C(NC(=S)Nc1cccc(Cl)c1N1CCCCC1)c1ccco1	inconclusive [inhibitor, single point]	–
CCc1nc2c(OCc3ccccc3C(=O)OC)cccn2c1N(C)C(=O)c1cccc(OC)c1	active: 13 µM	–
O=C(c1cn(-c2ccccc2)nc1-c1cccs1)N1CCN(c2ccccn2)CC1	inconclusive [inhibitor, single point]	–
c1ccc(Nc2nc3ccccc3n3cnnc23)cc1	inactive	–
CC1CCN(S(=O)(=O)c2ccc3nc(Nc4cccc(F)c4)ccc3c2)CC1	active: 20.6 µM	–
Cc1ccc(-c2csc(N(C)C(=O)c3c(C)nn(-c4ccccc4)c3Cl)n2)cc1	inconclusive [inhibitor, single point]	–
O=C(Nc1ccc(-c2ccccc2)cc1)c1ccccc1	inconclusive [inhibitor, single point]	–
Cc1ccccc1OCCC(=O)Nc1cc(S(=O)(=O)N2CCOCC2)ccc1OC(C)C	inconclusive [inhibitor, single point]	–
CCCC(=O)Nc1cccc(NC(=O)c2ccc(C)c([N+](=O)[O-])c2)c1	inconclusive [inhibitor, single point]	–
CCOc1ccccc1N1CC(C(=O)N2CCc3ccccc32)CC1=O (stereo not drawn)	inconclusive [inhibitor, partial curve]	–
CCCC(=O)NC(=S)NNC(=O)c1ccc([N+](=O)[O-])cc1	inconclusive [inhibitor, single point]	–
C=C1C(=C/C=C2\CCC[C@]3(C)[C@@H]([C@H](C)CCCC(C)C)CC[C@@H]23)C[C@@H](O)C[C@@H]1O	inconclusive [inhibitor, single point]	–
COC(=O)c1cc(-c2ccc(NC(C)=O)cc2)nc2ccccc12	inconclusive [inhibitor, partial curve]	–
Cc1ccc(CSc2nccc(-c3c(C)nc4ccccn34)n2)cc1	inconclusive [inhibitor, single point]	–
O=C(Nc1cccc(Cl)c1)c1ccc2ncsc2c1	inconclusive [inhibitor, full curve, poor fit]	–
Cc1ccc(-c2nc(CN3CCCCC3c3cccc(F)c3)c(C)o2)o1 (stereo not drawn)	inconclusive [inhibitor, single point]	–
COc1ccc(OC)c(/C(O)=C/C(=O)C(=O)Nc2ccccc2OC)c1	inconclusive [inhibitor, single point]	–
CCOc1ccc(C(=O)NCC(=O)N2CCC3(CC2)NCCc2[nH]cnc23)cc1	inactive	–
CC1(C)S[C@@H]2[C@H](NC(=O)C(NC(=O)N3CCNC3=O)c3ccccc3)C(=O)N2[C@H]1C(=O)O (stereo partly drawn)	inactive	–
CN(c1ccccc1)c1ccc(/C=C(\C#N)c2nnc3n2CCCCC3)cc1[N+](=O)[O-]	active: 18.4 µM	–
COc1ccc(-c2cc(C(F)(F)F)nc(SCCC(=O)Nc3ccc(F)cc3F)n2)cc1	inconclusive [inhibitor, partial curve, poor fit]	–
